# About 50,000 (12%) of roughly 420,000 compounds were called active. The inconclusive results got no clear call from the source; some entries with a clear call stand among them for comparison. Calls follow the shape of the dose curve; as a rule, active = well fitted inhibition curve with a large enough effect; inconclusive = small, poorly fitted or top-dose-only effect; inactive = flat fitted curve, though single readings scatter. No potency is given beside an inconclusive call; the fits are too rough.
# Test: qHTS for Inhibitors of human tyrosyl-DNA phosphodiesterase 1 (TDP1): qHTS in cells in presence of CPT; also: nearly all actives have a fitted effect of over 55% in size
# Conditions: chicken DT40 Tdp1-/-;hTDP1 cells + 20 nM CPT, ATP luminescence, 48 h; activity change, negative = growth inhibition: at 46.2 µM (top of the series) unless noted
# Method in brief: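 Cell growth measured by CellTiter-Glo luminescence after a minimum 48 h, 37 C compound exposure with 20 nM CPT in Tdp1-knockout DT40 cells stably expressing hTDP1, seeded 400/well; qHTS titration format.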
# % is scaled to controls: 0 for no effect and ±100 for the full control effect; potency is read from the fitted curve at half-maximal effect; tags tell the direction and shape of the fitted curve.
SMILES,Potency,"activity change, negative = growth inhibition"
O=c1[nH]cnc2scc(-c3ccc(-c4ccccc4)cc3)c12,inactive,
O=C(C[n+]1cc(-c2ccc(F)cc2)n2c1CCC2)N1c2ccccc2Sc2ccccc21,active: 14.6 µM,
COc1cc(C(C[N+](=O)[O-])c2c(C)cc3ccccn23)ccc1O (configuration not stated),active: 8.2 µM,
O=C(NC1CCCC1)C1CC(O)CN1C(=O)Nc1ccccc1 (configuration not stated),inactive,
COc1ccc2cc([C@H](C)C(=O)OCc3cn(CC(=O)c4ccc(O)cc4)nn3)ccc2c1,"inconclusive [inhibitor, single point]",
Cc1cnc(=O)[nH]c1SCc1ccc(C(F)(F)F)cc1,inactive,
COCCN=C1N[C@@H](c2ccc(Br)cc2)C(C(=O)OC)=C(C)N1Cc1ccccc1,"inconclusive [inhibitor, single point]",
C=CCn1c(CNc2ccccc2)nnc1SCC(=O)N/N=C/c1ccccc1O,"inconclusive [inhibitor, single point]",
CC1CCN(c2ccccc2NC(=O)c2ccc(Br)o2)CC1,active: 16.4 µM,
CC1=C(C(=O)Nc2ccc(C)cc2C)C(c2cccs2)n2nc(SCc3ccccc3Cl)nc2N1 (configuration not stated),active: 10.3 µM,
CSCC[C@H](NC(=O)OC(C)(C)C)c1nnc(SCc2cccc(F)c2)o1,"inconclusive [inhibitor, single point]",
O=C(NN=Cc1ccccc1O)C(O)c1ccccc1 (configuration not stated),"inconclusive [inhibitor, single point]",
CC(C)CCNC(=O)CN1N=C(c2ccc(Cl)cc2)CCC1=O,"inconclusive [inhibitor, partial curve]",
COCOc1ccc(-c2ncc(OC)nc2NC(=O)c2cc(C)oc2C)cc1,"inconclusive [inhibitor, single point]",
O=C(CCCCCNC(=O)N1CCn2c1nc1ccccc12)N[C@H](C(=O)O)c1ccccc1,inactive,
Cc1onc(-c2ccccc2)c1C(=O)N1CCCC1,inactive,
CC1CC(C)CN(C(=O)c2ccc(S(=O)(=O)N3CC(C)CC(C)C3)cc2)C1 (configuration not stated),active: 23.1 µM,
Cc1ccc(NC(=S)N(CCN2CCOCC2)Cc2ccccc2F)cc1,inactive,
CC(C)(C)NS(=O)(=O)c1cc(C(=O)Nc2sccc2C#N)ccc1Cl,active: 16.4 µM,
CCN(Cc1ccccc1)C(=O)Cn1c(=O)n(-c2ccc(C)c(C)c2)c(=O)c2c(C)c(C)sc21,active: 20.6 µM,
CCOC(=O)c1c(C)[nH]c(CCC(=O)NCc2ccc(N(C)C)cc2)c1C,"inconclusive [inhibitor, single point]",
CCc1nc2c(OCc3ccccc3)cccn2c1N(C)C(=O)COc1ccccc1,active: 23.1 µM,
C[C@@H]1CN([C@@H](C)CO)C(=O)CCCn2cc(nn2)CO[C@H]1CN(C)C(=O)c1ccc2ccn(C)c2c1,inactive,
CC(C)c1ccccc1NC(=O)COC(=O)/C=C/c1cccc([N+](=O)[O-])c1,"inconclusive [inhibitor, single point]",

SMILES,Potency,"activity change, negative = growth inhibition"
C=C1C=C(C(F)(F)F)n2ncc(C(=O)NCc3ccc(F)cc3)c2N1,"inconclusive [inhibitor, single point]",
COc1cc(OC)cc(C(=O)Nc2ccc(S(=O)(=O)Nc3nc(C)cc(C)n3)cc2)c1,inactive,
COc1ccc(CNc2oc(-c3ccc(COc4ccccc4C)o3)nc2C#N)cc1,"inconclusive [inhibitor, single point]",
CCn1cc(C2=NOC(C(=O)Nc3cc(OC)c(Cl)cc3OC)C2)c(C)n1 (configuration not stated),"inconclusive [inhibitor, single point]",
Cc1ccc2c(c1)C1CN(C)CCC1N2C(=O)COc1ccc(N(C)S(=O)(=O)c2cccs2)cc1 (configuration not stated),inactive,
Cc1ccc(Cn2c(=N)n(CC(=O)c3ccc([N+](=O)[O-])cc3)c3ccccc32)cc1,active: 4.61 µM,
CC1=C(c2ccc(C)cc2)S(=O)(=O)NC1=NCCCN1CCN(c2ccc(F)cc2)CC1,active: 14.6 µM,
COC(=O)[C@H](C(C)C)N(Cc1ccccc1)S(=O)(=O)CCN1CCCC1,"inconclusive [inhibitor, single point]",
COC(=O)c1ccc2nc(C3CCCCC3)c(Cc3cccc(Cl)c3)n2c1,"inconclusive [inhibitor, single point]",
O=C(NCCCc1ccncc1)C1CCC(=O)N(Cc2cccc(C(F)(F)F)c2)C1 (configuration not stated),inactive,
CCOC(=O)C1(CCOc2ccccc2)CCN(Cc2ccc(OC)cc2)CC1,active: 14.6 µM,
COc1ccc(-c2cc(=O)oc3cc(O)ccc23)cc1,"inconclusive [inhibitor, partial curve]",
Cc1ccc(NC(=O)CN2C(=O)CCSc3ccc(S(=O)(=O)N4CCCC4)cc32)cc1C,"inconclusive [inhibitor, single point]",
O=C(c1cc(COc2c(F)cccc2F)on1)N1CCC(c2ccccc2Cl)C1 (configuration not stated),inactive,
Cc1ccc(NC(=O)CSc2nc(-c3ccco3)cc(C(F)(F)F)n2)cc1,active: 2.06 µM,
CCc1nnc(NC(=O)CCC(=O)NCc2ccccc2Cl)s1,inactive,
CCCOc1ccc(C2C3=C(Nc4nc(N)[nH]c(=O)c42)c2ccccc2C3=O)cc1 (configuration not stated),"inconclusive [inhibitor, partial curve]",
c1cc2c(cc1C1=NNC(=NC3CC3)SC1)OCCO2,active: 20.6 µM,
Cc1ccc(S(=O)(=O)N(C)CC(=O)N(C)Cc2cccs2)cc1,inactive,
COCCNC(=O)C1(C)CCCN(C(=O)c2ccc(C)c(F)c2)C1 (configuration not stated),inactive,
C[C@H](NC(=O)c1[nH]cnc1C(=O)Nc1nccs1)c1ccccc1,,inconclusive: -30.8% [inhibitor]
Cn1cccc1C(=O)N1CCC[C@@]2(CCN(c3cccc(-c4ccccc4)c3)C2)C1,"inconclusive [inhibitor, single point]",
Cc1ccc(NC(=O)Nc2nnc(N(C)Cc3ccccc3)s2)c(C)c1,inactive,
CCN(CC)c1ccc(NC(=O)CSc2nc(-c3cccs3)cc(C(F)(F)F)n2)cc1,"inconclusive [inhibitor, single point]",

SMILES,Potency,"activity change, negative = growth inhibition"
O=C(c1ccc(COc2ccc(Cl)cc2)o1)N1CCN(Cc2ccc3c(c2)OCO3)CC1,"inconclusive [inhibitor, single point]",
CC(C)c1ccc(OC(=O)c2cc(-c3ccccc3)on2)cc1,inactive,
CCOc1ccc(-n2nc3ccc(NC(=O)COc4ccc(OC)cc4)cc3n2)cc1,"inconclusive [inhibitor, partial curve, poor fit]",
O=C(NCc1ccccn1)/C(=N/O)c1ccccc1,active: 14.6 µM,
CCN(CC)c1ccc(NS(=O)(=O)c2cc3[nH]c(=O)c(=O)[nH]c3cc2C)c(C)c1,"inconclusive [inhibitor, single point]",
CCCCn1nnnc1C(c1cc2ccccc2o1)N1CCN(c2cc(C)nc3ccccc23)CC1 (configuration not stated),"inconclusive [inhibitor, single point]",
Cc1cc(SCC(=O)Nc2ccccc2)n2ncc(-c3ccccc3)c2n1,"inconclusive [inhibitor, single point]",
Cn1cc(Cl)c(C(=O)NNC(=S)NCc2ccco2)n1,"inconclusive [inhibitor, single point]",
CCC1(CC)C(=O)C(C)(C)C(=O)OC1c1cccs1 (configuration not stated),"inconclusive [inhibitor, single point]",
CCc1nc(Oc2cccc(F)c2)c2oc3ccccc3c2n1,"inconclusive [inhibitor, single point]",
O=C(NC(=S)Nc1cccc(S(=O)(=O)NC2=NCCC2)c1)c1cc(-c2ccco2)nc2ccccc12,active: 4.61 µM,
Fc1cc(F)c(F)c(SCCc2ccncc2)c1F,"inconclusive [inhibitor, single point]",
COc1ccc(-n2nc(C)c3c(=O)c4c([nH]c32)CCCC4)cc1,"inconclusive [inhibitor, single point]",
COc1ccccc1OCCOc1ccc(/C=C2/C(=N)N3OC(C)=CC3=NC2=O)cc1OC,"inconclusive [inhibitor, partial curve, poor fit]",
Cc1ccc(/C=N/NC(=O)Cc2ccc(Cl)cc2)c(O)c1,active: 16.4 µM,
CC(=O)N1CCc2c(sc3nc(SCC(C)C)n(-c4ccc(F)c(Cl)c4)c(=O)c23)C1,"inconclusive [inhibitor, single point]",
Cc1cc(C(=O)Nc2cccc(-c3nc(CNC(=O)c4ccccc4C(F)(F)F)c(C)o3)c2)c(C)o1,"inconclusive [inhibitor, single point]",
CCCc1cc(=O)oc2c3c(cc(OCC(=O)NCc4ccncc4)c12)OC(C)(C)CC3,active: 6.51 µM,
CC(C)(C)c1ccc(C(=O)C=[N+]=[N-])cc1,active: 25.9 µM,
CCN(CC)c1ccc(-c2nc(-c3ccccc3C)no2)cc1[N+](=O)[O-],"inconclusive [inhibitor, partial curve]",
O=C1CCC([N+](=O)[O-])C(c2cccc([N+](=O)[O-])c2)N1 (configuration not stated),inactive,
O=C(Cc1ccc(Br)cc1)NC1CCCc2ccccc21 (configuration not stated),,inconclusive: -33.9% [inhibitor]
CC12CC3CC(C)(C1)CC(CN)(C3)C2,"inconclusive [inhibitor, single point]",
Cc1ccc(-n2c(SCC(=O)NCCN3C(=O)CSC3=O)nnc2-c2ccccc2)cc1,inactive,
